# From paper PMC12136788
# The list shows a part of the results.
# B1: chr8:101932826:101932827:-_ENSG00000164924_ENST00000353245|hu_mus|motif|central (ssRNA)
# RNA: GGGAGUUCUACAGUCCGACGAUCAAUAUAGAAAUUCAAAUAGAAGUAACAUAAACCUGUCAUAAAUCGUAAACAAAAAAACGGUCUGUGGGACAGCAUGGAUGACAAAUGGUCUACUGUGUAAAUUUUAGAAUGAGGCAGACACAACAGAGGAUUGAGCAUCA
# B2: chr3:9412954:9412955:+_ENSG00000134077_ENST00000452837|hu_mus|hu_hu_hu_mus_False|1_8 (ssRNA)
# RNA: GGGAGUUCUACAGUCCGACGAUCGGUUGAUAUCUCUUCUUUGAUGGCUGGAUUUUCAUAAUAGUCCAAGAUAUGUGAAUCUGAAGUGCUGCUGGCAUGCUUUUUCUUACCAUCUUUCUCAUCUGCUUUGACUUCUUGUCCAUUCAACAGAGGAUUGAGCAUCA
# B3: chr10:93459826:93459827:-_ENSMUSG00000036099_ENSMUST00000119818|mus_mus|motif|central (ssRNA)
# RNA: GGGAGUUCUACAGUCCGACGAUCUCCCCACACCAGCCAGGAGGACACAAUCCAGCACGUGGGAAACAUGAUGAGCAAACGGAUGAAGGCAAACAGCAGCGAGACAUCCCAAGUGUUCGGGGUUGCCAGGGAGCAGAGCGUUGGCAACAGAGGAUUGAGCAUCA
# B4: 63631413_63632246_5513_CDS_ENSMUSG00000028364_ENSMUST00000107372|mouse|control|control (ssRNA)
# RNA: GGGAGUUCUACAGUCCGACGAUCCCAGGUAAGGAGGGCAGUUUCUGACUGAACCUCUGUAGCUGUAAAUUCUCUUGGGGAAUCGAGGUCUGUGGUAAACUUGGUGGCGAUGGUAGAGCUCUUCUGCUGUCCUUUCUCUGCAAACAACAGAGGAUUGAGCAUCA
# B5: 119461075_119461195_1244_3pUTR_ENSG00000119401_ENST00000373983|human|control|control (ssRNA)
# RNA: GGGAGUUCUACAGUCCGACGAUCUACCACGGUCAGCGACUAGUACUUCACCUUGACUGGUCACGUAGAGACUGACUGGAAGAUUGAACAUUCCUGGAGUGCUGCCUUUGGCCCCCAUCUUCUUGAGAAAGAGGCACUGCUGGACAACAGAGGAUUGAGCAUCA
# B6: 123611402_123617215_529_ncRNA_ENSMUSG00000025245_ENSMUST00000165754|mouse|control|control (ssRNA)
# RNA: GGGAGUUCUACAGUCCGACGAUCUGGGCCUUUAGCAAAUCCUGUUGGUUUUCUUGAUCGAGCUGUAAAUCUUGAAGUACUCUUUCCAAUUUUGACUUCUCAUCCAGAGCAUUUACAGCCUGUAUUUCAAUGGUCUUCAGCCUUCAACAGAGGAUUGAGCAUCA
# B7: chr5:146773406:146773407:-_ENSG00000113657_ENST00000343218|hu_hu|FALSE|FALSE (ssRNA)
# RNA: GGGAGUUCUACAGUCCGACGAUCGGCCUGUCUGAUUGCAUGCAUGUAAAUGGGGGGAGGGGAGUCAAACAAAUCAAGGCUAUGCAUAAACAGAAAACAAAGCAAUAUUCGUAAAGCUAGGCAAGCGAGCGUAACAUUGGAGAACAACAGAGGAUUGAGCAUCA
# B8: chr4:140265382:140265383:+_ENSG00000164134_ENST00000296543|hu_mus|FALSE|FALSE (ssRNA)
# RNA: GGGAGUUCUACAGUCCGACGAUCUUCUCUAUAAAGACCUGCUUCCCGAAGAACUUGAUUCUGAUAUAAGAGGAGUUCACUAUAUUCAUAAUCCACUUUAUCAGGAGAUGUCUGCUGUGUUUUCCUAAACUCUUCUAAAAUUUUCAACAGAGGAUUGAGCAUCA
# B9: 171526625_171526745_1071_3pUTR_ENSG00000117523_ENST00000495585|human|control|control (ssRNA)
# RNA: GGGAGUUCUACAGUCCGACGAUCAGGUUAUAGCUGCAGCUGAAGUAGAGGCUGGAACUGAAGCUGAGACUGAGGCUGAGGCUGAAACUGGAGCUAAGGGUGAGGCUGGAACUGGAGCUGAGGUUGAGGCCAGAACUGGAGCUACAACAGAGGAUUGAGCAUCA
# B10: 151550765_151552471_1592_3pUTR_ENSMUSG00000034021_ENSMUST00000016569|mouse|control|control (ssRNA)
# RNA: GGGAGUUCUACAGUCCGACGAUCCGUUCCGUCGUUUCCAAAUUGUGAGGGACCAUGUACUGAGCAAAGAUCCGCUCAACAAGUAGCCGGUCGUCGAUGCUGUUCUGAUAGUAUAUAUGCAGCAGCUUGUCCUUGACCCAGGAUCAACAGAGGAUUGAGCAUCA
# B11: chr22:19452774:19452775:-_ENSG00000070010_ENST00000399523|hu_hu|hu_hu_hu_mus_False|18_48 (ssRNA)
# RNA: GGGAGUUCUACAGUCCGACGAUCCUUCUCAUUGUAGUUGAUAGCAAUCACAUCUCCAGUCGUCAGACAGGCGAAGUUUCUCAAUGCGUUUUCUAAUACCGCUUUAGGGUUGGUAAUGUCCAGGAAGUCUGGGCUCUGAGGCUGCAACAGAGGAUUGAGCAUCA
# B12: chr5:124080617:124080618:-_ENSMUSG00000049550_ENSMUST00000063905|mus_mus|FALSE|FALSE (ssRNA)
# RNA: GGGAGUUCUACAGUCCGACGAUCCUCCAUCUCUUUAGCAUGAGCAGACCGCUCAGAGUCCUGUUUACUCUGUAAACUUUCUAUUUCGUGCUGGUAAUCUAGUCUCAGUCUCUCUAUCUGUGUCUUUAACUCAGCAAAUUCAGCCAACAGAGGAUUGAGCAUCA
# B13: chr1:66480114:66480115:+_ENSMUSG00000015222_ENSMUST00000024639|mus_hu|mus_mus_mus_hu_True|48_48 (ssRNA)
# RNA: GGGAGUUCUACAGUCCGACGAUCUGGCCUGUGGCGGAUGUUCUUCAGAGAGCCACAUUUGGAUGUCACAUGGCUUAGGUCUAUUUUCUUAGUAACAAUUUGUACCUGCCCCCCUUUAGGCUGGUAUUUGAUGUUGUCUGUUGACAACAGAGGAUUGAGCAUCA
# B14: 172138790_172141191_752_CDS_ENSMUSG00000026667_ENSMUST00000150821|mouse|control|control (ssRNA)
# RNA: GGGAGUUCUACAGUCCGACGAUCGAUAAGGUCUCUGAGGUGAUAGGCUGGAAUUGCGGCAUUCACCACUGCUUUACUGGCAAAUAUAUGAUCAAUAAUAGCAGAACUGUUUGCCUUCCAUUCCUGAGAUCUGACUGUAUGUUUCAACAGAGGAUUGAGCAUCA
# Target: T1, UNK ZnF1-3 (human, UniProt Q9C0B0 31-174)
# T1 sequence: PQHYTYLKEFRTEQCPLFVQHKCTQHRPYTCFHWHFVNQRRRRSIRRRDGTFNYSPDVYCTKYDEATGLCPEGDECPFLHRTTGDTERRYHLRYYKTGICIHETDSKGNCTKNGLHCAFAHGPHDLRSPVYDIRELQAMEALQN
# Assay: nsRBNS (natural sequence RNA bind-n-seq); RBNS binding buffer (assumed for nsRBNS): 25 mM Tris pH 7.5, 150 mM KCl, 3 mM MgCl2, 0.01% Triton X-100, 500 ug/ml BSA, 20 U/ml SUPERase-In, 4 C; UNK is unkempt and MSI1 is Musashi-1; names of the RNAs are library labels; protein concentration not given here; high values mean tight binding
row,Binder,binding signal
1,B1,1.94 enrichment R
2,B2,0.279 enrichment R
3,B3,2.05 enrichment R
4,B4,0.781 enrichment R
5,B5,0.768 enrichment R
6,B6,0.435 enrichment R
7,B7,2.29 enrichment R
8,B8,1.5 enrichment R
9,B9,2.07 enrichment R
10,B10,0.852 enrichment R
11,B11,0.717 enrichment R
12,B12,0.821 enrichment R
13,B13,0.506 enrichment R
14,B14,0.552 enrichment R
